Reference: PubChem BioAssay AID1159614 (National Center for Advancing Translational Sciences (NCATS), 2016)
The campaign covered roughly 45,000 compounds. About 65 (0.1%) were called active. Calls come from the whole dose curve; as a rule, active = well fitted activation curve with a large enough effect; inconclusive = small, poorly fitted or top-dose-only effect; inactive = no such curve, though single readings can be large or run the other way. Some of the results follow.

target: Galactocerebrosidase (Homo sapiens) (UniProt P54803); assay: A Novel Cell-Based Assay to Identify Small Molecules for B -Galactocerebrosidase; conditions: 145M-Twi-hGALC-G270D cells (Twitcher mouse brain line with human GALC G270D), HMU-beta-Gal fluorescence, 48 h; series mostly up to 57.5 µM; activation: at the top concentration; note: 0% is about no effect; nearly all actives have a fitted effect of over 65% in size
UniProt P54803, sequence (P54803 whole entry, looked up): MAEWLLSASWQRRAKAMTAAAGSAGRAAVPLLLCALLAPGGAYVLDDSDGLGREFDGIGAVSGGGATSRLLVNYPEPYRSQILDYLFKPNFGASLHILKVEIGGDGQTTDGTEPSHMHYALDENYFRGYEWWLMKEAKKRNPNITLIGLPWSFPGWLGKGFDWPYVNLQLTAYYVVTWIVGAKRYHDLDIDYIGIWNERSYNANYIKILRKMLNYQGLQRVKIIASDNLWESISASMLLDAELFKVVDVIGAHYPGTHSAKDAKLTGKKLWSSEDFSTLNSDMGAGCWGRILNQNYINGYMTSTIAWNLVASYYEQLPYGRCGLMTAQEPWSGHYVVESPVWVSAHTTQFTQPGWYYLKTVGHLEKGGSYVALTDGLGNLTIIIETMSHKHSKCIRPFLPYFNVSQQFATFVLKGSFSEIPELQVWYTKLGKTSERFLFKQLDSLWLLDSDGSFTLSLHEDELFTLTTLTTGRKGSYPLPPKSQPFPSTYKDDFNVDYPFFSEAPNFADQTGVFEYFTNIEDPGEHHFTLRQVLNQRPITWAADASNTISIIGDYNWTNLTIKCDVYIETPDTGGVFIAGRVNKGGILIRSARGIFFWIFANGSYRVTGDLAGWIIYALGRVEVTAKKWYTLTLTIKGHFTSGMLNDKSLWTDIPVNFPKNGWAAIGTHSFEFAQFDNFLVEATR
Procedure, shortened: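 Fluorescence readout: HMU-β-gal cleavage by mutant GALC (0.1 mM final, citrate/phosphate pH 5.2 with 1 mg/mL taurocholate), stopped with carbonate/bicarbonate plus Triton X-100. Cells: murine Twitcher 145M-Twi expressing human G270D GALC; qHTS for activators.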

activation, inactive:
CN(CC(=O)Nc1cccc(Cl)c1)S(=O)(=O)c1ccc2[nH]c3c(c2c1)CCCC3 -17.2%, CC1=C(C(N)=O)C(c2ccc(C(C)C)cc2)n2nc(SCc3ccccc3)nc2N1 (stereo unspecified) -6.56%, COc1ccc(CCNC(=O)c2ccc3c(c2)N(Cc2ccc(C)cc2)CCS3)cc1OC -10.1%, CCOc1ccc(S(=O)(=O)N(CC(=O)Nc2cccnc2)c2ccccc2)cc1 -0.722%, Cc1cc(N2CCN(C)CC2)nc2ccc(NC(=O)Nc3ccccc3Br)cc12 3.82%, Cc1cc(C)n2nc(SCC(=O)Nc3cc(Cl)ccc3C)nc2n1 -6.8%, COC(=O)c1ccc(NC(=O)CCc2c(C)nc3c(c(C)nn3-c3ccc(C)cc3)c2C)cc1 -11.7%, Oc1c(C(c2ccccc2F)N2CCOCC2)sc2nc(-c3ccco3)nn12 (stereo unspecified) -11.8%, CCOC(=O)C1CCN(c2c(C(=O)c3ccc(OCC)cc3)cnc3ccc(OC)cc23)CC1 -23.9%, Cc1cccc(NC(=O)c2oc3c(c2C)-c2[nH]ncc2CC3)c1C -1.08%, COc1ccc(CCNc2nc(-c3ccc(C)cc3)cc(C(F)F)n2)cc1OC -20.2%, CCOC(=O)c1cccc(NC(=O)CC(c2cc(OC)c(OC)c(OC)c2)N2Cc3ccccc3C2=O)c1 (stereo unspecified) -17.6%, CCc1nn2c(-c3ccccc3OC)ccnc2c1-c1ccc(F)cc1 6.94%, CCn1c(=NC(=O)c2ccc(S(=O)(=O)N3CCCCC3)cc2)sc2cccc(OC)c21 -15.1%, CCOc1ccc(NC(=O)CN2CCN(Cc3ccccc3)S2(=O)=O)cc1 -3.05%, CCN(c1ccccc1)S(=O)(=O)c1ccc2[nH]cc(C(=O)NC3CCCCC3)c(=O)c2c1 -39.9%, Cc1nc2c(C(=O)NCc3ccccc3Cl)c[nH]n2c(=O)c1Cc1cccc(Cl)c1 -6.06%, Cc1c(Cl)cccc1NC(=O)CC(c1cccs1)N1Cc2ccccc2C1=O (stereo unspecified) -35.5%, CC(NC(=O)CSc1n[nH]c(-c2ccccc2Cl)n1)c1nc2ccccc2n1C (stereo unspecified) 4.43%, CCCCNC(=O)C1CCN(C(=O)N2CC(C)Oc3ccc(Cl)cc32)CC1 (stereo unspecified) -6.5%, CCOc1ccccc1-n1c(C)nc2cc(C(=O)O)ccc21 -22.5%, CCOC(=O)N1CCc2c(sc(NCc3sccc3C)c2C(=O)Nc2cc(OC)ccc2OC)C1 -24.5%, CCCCN(C)CCCNC(=O)CN1C(=O)COc2ccc(S(=O)(=O)N3CCC(C)CC3)cc21 -3.83%, Cc1cc(=O)[nH]c2nnc(SCc3ccc(Cl)c(Cl)c3)n12 -20.4%, COc1cccc(NC(=O)CSc2cc(=O)n(C)c3ccc(Cl)cc23)c1 -12.2%, Cn1cnc(S(=O)(=O)N2CCCC(C(=O)NCc3ccccc3Cl)C2)c1 (stereo unspecified) -18%, N#C/C(=C\c1ccc(F)cc1)C(=O)NCC1CCCO1 (stereo unspecified) -14.9%, Cc1ccc(CCNC(=O)C(CC(C)C)NS(=O)(=O)c2ccc3c(c2)oc(=O)n3C)cc1 (stereo unspecified) -9.13%, Cc1cccc(C(=O)N2CCc3cc(CNC(=O)c4ccnn4C)ccc32)c1 -12.5%, CCOc1ccccc1NC(=O)CN1C(=O)COc2ccc(S(=O)(=O)N3CCCCCC3)cc21 -2.87%, CCOc1ccccc1NC(=O)Cc1coc2c(C)c(C)ccc12 -16.5%, O=C(COc1ccc(Cl)cc1)Nc1sc2c(c1C(=O)Nc1cccc(Cl)c1)CCCC2 -14.2%, CCOc1ccc(CC(=O)Nc2ccc3c(c2)N(C)C(=O)c2ccccc2S3)cc1OCC -8.62%, CCc1ccc(OCC(=O)N(Cc2ccc(C)cc2)Cc2ccco2)cc1 -5.97%, Cc1cccc(C)c1-n1ncc(C(=O)NCc2ccc3c(c2)OCO3)c1C1CCN(C(=O)OC(C)(C)C)CC1 24.5%, CCCN1C(=O)C(O)(CC(=O)c2ccc(CC)cc2)c2cc(Br)ccc21 (stereo unspecified) -29.7%, Cc1cccc(OCC(=O)Nc2nonc2-c2ccc(Br)cc2)c1C -21.4%, CCCCN(C)CCCNC(=O)c1cc(=O)[nH]c2ccc(S(=O)(=O)N3CCCCC3)cc12 -12.1%, CC(=O)N1c2ccc(S(=O)(=O)NCC3CCC(C(=O)Nc4ccccc4C)CC3)cc2CC1C (stereo unspecified) -19.4%, O=C(Nc1ccc(OC(F)(F)F)cc1)C1CCCN(S(=O)(=O)c2cccc3nonc23)C1 (stereo unspecified) -12.6%, Cc1ccc(NC(=O)CCc2c(C)nc3c(-c4ccccc4)c(C)nn3c2C)c(C)c1 -16.5%, COc1ccc(-n2c(=O)c3ccccc3n(CC(=O)NCCc3ccccc3)c2=O)c(OC)c1 -24.7%, Cc1cccc(-n2cc(-c3ccccc3)c3c(NC(C)C)ncnc32)c1 7.41%, CC1CCN(S(=O)(=O)c2cn(CC(=O)Nc3ccc(F)c(Cl)c3)c(=O)c3ccccc23)CC1 -12.1%, CCC1=Nc2cc(C(=O)NC(C)c3ccccc3)ccc2Sc2ccc(Cl)cc21 (stereo unspecified) -19%, COc1ccc2c(c1)CCc1sc(NC(=O)c3ccc(Cl)cc3)nc1-2 11.3%, COCCCNC(=O)CN1C(=O)COc2ccc(S(=O)(=O)N3CCCCCC3)cc21 -12.9%, COC(=O)c1ccccc1NC(=O)CN(c1ccccc1OC)S(C)(=O)=O 5.51%, Cc1ccc(NC(=O)CSc2nc(-c3ccc(F)cc3)nc3c2Cc2c(CO)cnc(C)c2O3)cc1C -10.7%, O=C(CSc1nccn1-c1cccc(Cl)c1)Nc1cccc(C(F)(F)F)c1 -6.92%, CN(Cc1ccccc1)C(=O)CCS(=O)(=O)c1cc(Br)cc2c1N(C(=O)C1CC1)CC2 -19.7%, CC(C)c1ccc(NC(=O)c2ccc(F)c(S(=O)(=O)N3CCCC3)c2)cc1 -15.3%, CC1CCN(C(=O)Cn2cc(SCc3ccccc3)c3ccccc32)CC1 -11.4%, O=C(COc1ccccc1F)Nc1ccccc1OCc1cc(=O)n2ccccc2n1 -0.325%, COc1ccccc1OCC(=O)Nc1nnc2n1CCS2 -28.3%, CCCc1nnc(N2C(=O)c3oc4ccc(F)cc4c(=O)c3C2c2ccc(C(=O)OC)cc2)s1 (stereo unspecified) -16.9%, COc1cc2ccccc2cc1C(=O)N1CCN(c2nc3c(C)cc(C)cc3s2)CC1 -40%, CCOc1ccc(-n2cc(C(=O)Nc3ccccc3OCC)c3cc(OC)c(OC)cc3c2=O)cc1 -30.9%, CC1CCN(c2nnc(-n3cccc3CNc3cccc(F)c3)s2)CC1 -21.4%, O=C(C1CCC1)N1CCc2cc(S(=O)(=O)N3CCN(c4ccccc4)CC3)ccc21 -8.06%, CCc1ccccc1NC(=O)N1CCN(c2nnc(C)c3c(C)n(-c4ccccc4)nc23)CC1 -9.02%, CCOC(=O)c1c(NC(=O)CS(=O)(=O)c2ccc(C)cc2)sc2c1CCC(C)C2 (stereo unspecified) -19.2%, CC1CCN(C(=O)Cn2cc(SCc3cccc(F)c3)c3ccccc32)CC1 -11.7%, Cc1ccc2nc(-c3ccccc3O)c(Nc3ccccc3C)n2c1 -25.3%, CCC(C(=O)OCCN1CCOC(c2ccccc2)C1C)c1ccccc1 (stereo unspecified) -16.9%, Cc1cccc(NC(=O)C2CCN(S(=O)(=O)c3cccc4nsnc34)CC2)c1 -3.72%, CCC(C)NC(=O)Cn1c(=O)n(CC2CCC(C(=O)NC)CC2)c(=O)c2sccc21 (stereo unspecified) -7.15%, CCOc1ccccc1NC(=O)N1CCc2c(sc3c2CCCC3)C1c1ccccc1 (stereo unspecified) -19.9%, CCOc1ccccc1C(=O)N1CC(=O)Nc2ccc(C)cc2C1c1ccccc1 (stereo unspecified) -10.3%, Cc1ccc(CN2c3ccccc3-c3nc(SCC(=O)Nc4c(C)cc(C)cc4C)ncc3S2(=O)=O)cc1 -10.1%, COc1ccc(NC(=O)Nc2cc(-c3cn4cccnc4n3)ccc2OC)cc1 15.7%, Brc1ccc2c(c1)NC(c1cccnc1)=NC(c1ccccc1)=N2 -18%, O=C(OCc1ccccc1Cl)c1ccc(-c2nnn(Cc3ccc(F)cc3)n2)cc1 -9.62%, Cc1nn2c(=O)cc(COc3ccc(/C=C(\C#N)C(=O)Nc4ccccc4)cc3Cl)nc2s1 -4.27%, CCC(=O)Nc1ccc(CC)cc1-c1nc2ccccc2n(CC(=O)Nc2ccccc2C)c1=O -12.5%, Cc1ccc(NC(=O)Cn2c(=O)oc3cc(S(=O)(=O)N4CCCCC4)ccc32)c(C)c1 -33.2%, COc1ccc(-c2onc(C)c2C)cc1S(=O)(=O)Nc1cc(Cl)ccc1C -3.08%, COc1ccc(-c2cc3nc(C)c(CCC(=O)N4CCN(c5ccccc5F)CC4)c(C)n3n2)c(OC)c1 -31.7%, O=C(CSc1nc2ccccc2nc1Cc1ccccc1F)Nc1cccc(C(F)(F)F)c1 -6.5%, Cc1ccc(CNc2ncnc3onc(C)c23)cc1 -26.5%, CCN(CC)c1ccc(NC(=O)CCS(=O)(=O)c2ccc3c(c2)oc(=O)n3C)c(C)c1 -16.7%, COC(=O)c1ccccc1NC(=O)c1cc(CN2CCOCC2)on1 -22.2%, CCOc1cc(C(=O)NCc2nc(-c3cccc(C)c3)no2)cc(OCC)c1OCC -21.4%, CCc1cccc(C)c1Nc1c(-c2cccs2)nc2nc(C)cc(C)n12 -17.8%, CCc1ccccc1NC(=O)CSc1nnc(COc2ccccc2Cl)o1 -18.4%, Cc1cn2c(=O)cc(COC(=O)c3ccc(NC(=O)COc4ccc(C)c(C)c4)cc3)nc2s1 -7.17%, COc1cc(C(=O)Nc2ccc(-c3nc4ccccc4o3)c(O)c2)cc(OC)c1OC 3.89%, COc1cc2c(cc1OC)C(COc1ccc(F)cc1)N(C(=O)Cc1ccccc1)CC2 (stereo unspecified) -16.4%, CCOc1ccc(-c2cc(C(=O)NCCCOC)c3c(-c4ccc(CC)cc4)[nH]nc3n2)cc1 3.42%, CCCOc1ccc(C2c3c(-c4ccccc4O)n[nH]c3C(=O)N2Cc2cccnc2)cc1 (stereo unspecified) -19.9%, CC(C)OCCCn1c(=O)c2ccccc2n2c(-c3cc(Cl)ccc3O)nnc12 -8.85%, Cc1ccc(Cn2c(CNC(=O)Cc3cccc([N+](=O)[O-])c3)nc3cccnc32)cc1 3.44%, COc1ccc(-c2nc3ccccc3s2)cc1NC(=O)c1cccc([N+](=O)[O-])c1C -9.02%, CCn1c(=N)c(C(=O)NCC2CCCO2)cc2c(=O)n3cc(C)ccc3nc21 (stereo unspecified) -9.97%, O=S(=O)(NCC(c1ccccc1)N1CCc2ccccc21)c1ccccc1 (stereo unspecified) -2.29%, O=c1c2ccccc2n(Cc2c(F)cccc2Cl)c(=O)n1Cc1ccccc1 10.7%
